Here are results for 172 sequences from publication PMC10668032.

The other results are listed elsewhere or left out. At the low end of the ranking, values are background and their order means little.

The target of this assay is SIX1 homeodomain (reference allele) (UniProt Q15475). Put plainly: universal protein binding microarray. To be noted: Universal all-10-mer PBM (8x60K, AMADID 030236), 300 nM GST-tagged protein, Alexa Fluor 488 anti-GST; buffer, salt, pH and temperature not stated; high values mean tight binding; most listed sequences are background and not binding sites; double strand, one strand shown.
As for ATGTTGCC, the binding signal was determined as 0.0146 E-score.

As for CCATGAGG, the binding signal worked out at 0.0198 E-score.

Take CGCAGCCA: the binding signal is -0.0909 E-score.

For GACGGGAC, the binding signal is -0.293 E-score.

For the sequence AAGGGCGT, the binding signal was -0.119 E-score.

For the sequence AGAGATGG, the binding signal came out at 0.134 E-score.

As for ACTACGGA, the binding signal is -0.0534 E-score.

As to GACGCTCC, the binding signal is -0.186 E-score.

GCCTGGCA: the binding signal is -0.383 E-score.

Turning to AACACTGT, the binding signal is -0.0656 E-score.

Take ACTGGTAA: the binding signal is -0.0644 E-score.

With CCTATGAG, the binding signal was -0.0357 E-score.

In the case of ACCGCTGG, the binding signal came to 0.103 E-score.

As to ATATTAAC, the binding signal was determined as 0.156 E-score.

With CTGCGCCA, the binding signal was -0.204 E-score.

In the case of CTTCCGCA, the binding signal worked out at 0.0362 E-score.

As for CAACGAGC, the binding signal is -0.168 E-score.

On to AATCCACG, for which the binding signal is -0.0709 E-score.

For AGCGCGAA, the binding signal was -0.189 E-score.

In the case of GTACAATA, the binding signal came to 0.0743 E-score.

Regarding CATAGAGC, the binding signal is -0.151 E-score.

With GCAGCTAA, the binding signal is -0.189 E-score.

As for ATCGACGC, the binding signal is -0.0319 E-score.

AAAGGCGT: the binding signal is -0.131 E-score.

GCTATTAC: the binding signal worked out at 0.0732 E-score.

In the case of CCATTATC, the binding signal turned out to be 0.127 E-score.

Take CCATGCGG: the binding signal is -0.0832 E-score.

Regarding ACGTCTGG, the binding signal is -0.218 E-score.

As for ATACCAAG, the binding signal was 0.285 E-score.

Consider TCGAGGAA, for which the binding signal is -0.21 E-score.

ACGCCCCC: the binding signal is -0.101 E-score.

As for CGTGGCAA, the binding signal was -0.204 E-score.

For the sequence ATTCACGA, the binding signal turned out to be 0.0136 E-score.

Turning to GTCTTCTA, the binding signal is -0.0681 E-score.

As to ACACAATG, the binding signal came out at 0.00245 E-score.

For AGGTGATG, the binding signal was -0.0263 E-score.

Take GATGTAAC: the binding signal is -0.0713 E-score.

As for AATACGGC, the binding signal stood at 0.252 E-score.

Turning to ACTGACCC, the binding signal was 0.0491 E-score.

As for ACTACTAT, the binding signal was 0.122 E-score.

As for CTGTTCTA, the binding signal was -0.0952 E-score.

Take AGTTTGGA: the binding signal was 0.0293 E-score.

As to GGGTCCTA, the binding signal was -0.00688 E-score.

Take AGGCAGGC: the binding signal was -0.166 E-score.

For ACATGCTA, the binding signal was -0.158 E-score.

As for ATAGCGCG, the binding signal was 0.0138 E-score.

As to ACATATGA, the binding signal was 0.166 E-score.

In the case of ACTCTTGA, the binding signal was determined as 0.00743 E-score.

Take CGGAAGAA: the binding signal is -0.218 E-score.

Turning to ACCATCGC, the binding signal was -0.174 E-score.

For the sequence AGGTACCG, the binding signal is 0.00903 E-score.

With CCACCGCG, the binding signal was 0.126 E-score.

Turning to AGAGGTAC, the binding signal was -0.0714 E-score.

Consider GCAAAGCA, for which the binding signal is -0.146 E-score.

Take GCTGTGAC: the binding signal is -0.0895 E-score.

On to ACCGAGCG, for which the binding signal was -0.0382 E-score.

For the sequence GAGCGTTA, the binding signal is -0.143 E-score.

As for ATTGCCTG, the binding signal was -0.0952 E-score.

With ATGATTGC, the binding signal is -0.0515 E-score.

As to GTGCCTCA, the binding signal is -0.382 E-score.

On to GTAAGACA, for which the binding signal was -0.149 E-score.

For ATCTTCTA, the binding signal is 0.227 E-score.

Consider ACCGGCGA, for which the binding signal was 0.0881 E-score.

As for CTGAGTAA, the binding signal is -0.18 E-score.

GTGGGATA: the binding signal was determined as 0.348 E-score.

In the case of CCATTGGG, the binding signal is -0.00459 E-score.

ATTCACCC: the binding signal is -0.121 E-score.

As to CACAATAC, the binding signal worked out at 0.31 E-score.

As to GTTGCAAA, the binding signal was -0.124 E-score.

On to ACGAGGAA, for which the binding signal came out at 0.0787 E-score.

CGTCGACA: the binding signal was -0.146 E-score.

Turning to AGACCGTA, the binding signal was -0.0102 E-score.

With TCGTACCA, the binding signal stood at 0.0409 E-score.

Regarding AACACTCT, the binding signal was -0.109 E-score.

Turning to CCTCTTCC, the binding signal was -0.215 E-score.

As for CACTAGCA, the binding signal is -0.106 E-score.

With GCAGTTCA, the binding signal is -0.134 E-score.

For the sequence CGATCCGC, the binding signal came out at 0.418 E-score.

As to CATCACGG, the binding signal is 0.00309 E-score.

On to GACATTGC, for which the binding signal was -0.0675 E-score.

For the sequence ATGGTAGG, the binding signal is -0.0152 E-score.

CCACGGAC: the binding signal is -0.134 E-score.

For the sequence AGGAATGC, the binding signal was -0.178 E-score.

CGGTTAAC: the binding signal is -0.0818 E-score.

Take TACACACA: the binding signal was 0.156 E-score.

Turning to GCAAAATA, the binding signal amounted to 0.0309 E-score.

Regarding ATTACCTA, the binding signal amounted to 0.0771 E-score.

For AGGCCGGC, the binding signal was -0.221 E-score.

With CTACATAC, the binding signal stood at 0.159 E-score.

For the sequence ACCCTGAC, the binding signal was -0.0416 E-score.

On to GGCAGCTA, for which the binding signal is -0.113 E-score.

Turning to AGCACCAA, the binding signal was -0.0758 E-score.

Take CTTACATA: the binding signal was -0.0582 E-score.

Consider CCCTCTGC, for which the binding signal is -0.145 E-score.

For the sequence AAAGCGCC, the binding signal is -0.167 E-score.

For the sequence CTCCGCTA, the binding signal was -0.205 E-score.

As for CGTATAAA, the binding signal was determined as 0.219 E-score.

GTGTATCA: the binding signal stood at 0.462 E-score.

Take CACGACCA: the binding signal is -0.108 E-score.

For the sequence AGAGCGGA, the binding signal was -0.133 E-score.

Take CATCTACG: the binding signal amounted to 0.0999 E-score.

On to AACTATCT, for which the binding signal is 0.0574 E-score.

Turning to CCCACACG, the binding signal turned out to be 0.109 E-score.

In the case of ACTATGCG, the binding signal was 0.0748 E-score.

Regarding GCTCTCGA, the binding signal was -0.22 E-score.

Consider AGCATTTG, for which the binding signal was -0.148 E-score.

For CACAATGA, the binding signal was found to be 0.025 E-score.

CCTAAATC: the binding signal amounted to 0.0404 E-score.

GTCGCATA: the binding signal is 0.0853 E-score.

On to CTTCAGGC, for which the binding signal is -0.241 E-score.

In the case of ACATTAAA, the binding signal was -0.264 E-score.

For TGCCATAA, the binding signal was -0.112 E-score.

For the sequence CTACTGAG, the binding signal was 0.0072 E-score.

ATCGCCAG: the binding signal is 0.175 E-score.

On to ATAACAAC, for which the binding signal was -0.00556 E-score.

As to AGTGATTC, the binding signal turned out to be 0.00105 E-score.

Regarding ACGATATG, the binding signal turned out to be 0.417 E-score.

Take AACAAATT: the binding signal was -0.266 E-score.

Consider CCCCATAG, for which the binding signal was 0.0304 E-score.

For CCCGATCC, the binding signal amounted to 0.366 E-score.

With AATCGCGG, the binding signal is -0.00756 E-score.

Consider CTCGATTA, for which the binding signal turned out to be 0.0353 E-score.

As to AAATGATT, the binding signal is -0.322 E-score.

In the case of ACCGCTAG, the binding signal turned out to be 0.0327 E-score.

In the case of ACCGGGCA, the binding signal was -0.119 E-score.

Consider GCTCGTGA, for which the binding signal is -0.0958 E-score.

As to ACCATTCC, the binding signal is -0.0379 E-score.

Take GCATATGA: the binding signal stood at 0.167 E-score.

As for ATATGATC, the binding signal came to 0.378 E-score.

For TCCTAAAA, the binding signal is -0.133 E-score.

Take CGAATAAC: the binding signal is -0.173 E-score.

With ACGCGTCC, the binding signal is -0.0293 E-score.

Take ACCGGCAA: the binding signal was -0.0271 E-score.

Turning to CACCGATA, the binding signal was 0.374 E-score.

For the sequence AAGCGTGC, the binding signal was -0.241 E-score.

On to GTTGCGCA, for which the binding signal was -0.307 E-score.

In the case of ACTATCCC, the binding signal was determined as 0.294 E-score.

As for GGGGGAAA, the binding signal was -0.125 E-score.

For the sequence ATAGCTCA, the binding signal amounted to 0.148 E-score.

Take AAGGATCC: the binding signal amounted to 0.35 E-score.

For AACGAAGT, the binding signal is -0.21 E-score.

Consider ATCGCGGC, for which the binding signal is 0.19 E-score.

For the sequence GGCCTACC, the binding signal was -0.119 E-score.

Consider ACGAACAT, for which the binding signal turned out to be 0.0488 E-score.

For the sequence CTTCGAAG, the binding signal is -0.199 E-score.

As for GCCTGAGC, the binding signal is -0.134 E-score.

Take AGCAAAGA: the binding signal was -0.179 E-score.

With CCTCAACG, the binding signal was -0.132 E-score.

AGGTATCA: the binding signal is 0.487 E-score.

On to ACCGATTA, for which the binding signal is 0.0656 E-score.

For GTAAACAC, the binding signal was determined as 0.0999 E-score.

For the sequence GTAGACCA, the binding signal is -0.0545 E-score.

As to ATTCACTA, the binding signal is -0.146 E-score.

For the sequence CGCGCAAA, the binding signal was found to be 0.0692 E-score.

As to ACAAGCTG, the binding signal is -0.0746 E-score.

For the sequence TATCGACA, the binding signal was 0.343 E-score.

On to AGAATGCT, for which the binding signal was -0.0372 E-score.

With ATCATGCC, the binding signal was 0.244 E-score.

As for AAACCGAA, the binding signal is -0.0402 E-score.

With CCGGGGCC, the binding signal was 0.0128 E-score.

Take ATTCGTTG: the binding signal came to 0.0927 E-score.

Turning to GCCGGGAA, the binding signal was -0.113 E-score.

For GTAGCCTA, the binding signal is -0.141 E-score.

Regarding AAATGATA, the binding signal amounted to 0.415 E-score.

Take TAGCTGGA: the binding signal amounted to 0.0126 E-score.

For the sequence ATTCTTGC, the binding signal was -0.0596 E-score.

As to TAGCCCCA, the binding signal came out at 0.0784 E-score.

Regarding ACTCGTTG, the binding signal is -0.236 E-score.

Consider ATTACGGC, for which the binding signal was found to be 0.0297 E-score.

As for GACCTCTC, the binding signal was -0.0541 E-score.

Turning to GGCAGGCA, the binding signal was -0.199 E-score.

Turning to CCGCTGGA, the binding signal is 0.00617 E-score.
